# Assay results: PubChem BioAssay AID1347073 (National Center for Advancing Translational Sciences (NCATS), 2019)
# The whole screen tested about 45,000 compounds, of which about 200 (0.44%) were called active. Inconclusive results (about 7%) are left out. Calls follow the shape of the dose curve; as a rule, active = well fitted activation curve with a large enough effect; inconclusive = small, poorly fitted or top-dose-only effect; inactive = no such curve, though single readings can be large or run the other way. The list shows a part of the results.
# Test: qHTS of TDP-43 Inhibitors: NCGC Sytravon Library Screen; also: 0% is about no effect; nearly all actives have a fitted effect of over 55% in size
# Conditions: yeast TDP-43 toxicity rescue, BacTiter-Glo growth, 24 h; series mostly up to 46.1 µM; growth rescue (activation): at the top concentration
# Excerpt: The goal of this project is to identify new chemical probes capable of reversing the toxicity associated with TDP-43 which is associated with frontotemporal lobar degeneration and amyotrophic lateral sclerosis. These compounds will provide a complementary approach to deciphering the tangled mechanisms of toxicity and protection that we have uncovered through genome-wide genetic screens and are beginning to uncover in a large-scale proteomics analysis with mass spectroscopy. To this end, a miniaturized assay was developed to be screened against the Molecular Libraries Small Molecule Repository (MLSMR) to discover TDP-43 inhibitors. Please note that in the set-up this yeast-based assay compounds that inhibit as TDP-43, have a read-out as activators. NIH Chemical Genomics Center [NCGC] NIH Molecular Libraries Probe Centers Network [MLPCN] Assay Submitter (PI): Susan Lindquist, Whitehead Institute/MIT MLPCN Grant: R21 NS060957
# Dispense 2.5 microL yeast galactose medium per 1536-well plate, pin compound, dispense 2.5 microL TDP-43 expressing yeast in galactose medium at OD600=0.02 (pregrown in raffinose medium to mid-log phase) per well, incubate for 24 hr at 30 deg C, and cell growth will be measured using 5 microL of Bactiter/Glo reagent to entire plate and read using Luminescence Protocol in ViewLux.
row,SMILES,growth rescue (activation)
1,Cc1ccccc1NC(=O)COC(=O)C1C2CC3OC(=O)C1C3C2 (stereo not given),inactive: 0.381%
2,CC(C)c1nnc(NC(=O)C2CCN(C(=O)Nc3ccccc3)CC2)s1,inactive: 2.52%
3,CCOC(=O)C1=C(c2ccccc2)NC(=O)N(C(C)=O)C1c1cccc([N+](=O)[O-])c1 (stereo not given),inactive: -17.1%
4,Cc1ccc(S(=O)(=O)N(C)CC(=O)OCC(=O)NC(=O)Nc2ccc3c(c2)OCCO3)cc1,inactive: 4.96%
5,COc1cc(NC(=O)CSc2ccc(-c3ccccn3)nn2)cc(OC)c1,inactive: 20.4%
6,Cc1ccc(/C=N/NC(=O)c2cccnc2)s1,inactive: 1.53%
7,COC(=O)COc1ccc(S(=O)(=O)Nc2cc([N+](=O)[O-])ccc2C)cc1,inactive: 10.2%
8,O=C(CSCc1ccccc1Br)N/N=C/c1ccc(OCC(=O)N2CCCCC2)cc1,inactive: 6.91%
9,CCN(CC(=O)NCc1ccco1)S(=O)(=O)c1ccc(OC)cc1,inactive: 10.8%
10,CCN1CCCC1Cn1cnc2c([nH]c3ccc(C)cc32)c1=O (stereo not given),inactive: 27%
11,Cc1cc(N2CCN(C)CC2)nc2ccc(NC(=O)CCC(=O)NCCc3ccc(Cl)cc3)cc12,inactive: 7.63%
12,Cc1ccc(Nc2c(-c3ccccn3)nc3cc(C)ccn23)cc1,inactive: 2.63%
13,COc1ccc(NC(NC(=O)c2cccnc2)C(Cl)(Cl)Cl)cc1 (stereo not given),inactive: 1.47%
14,COc1cc(C(C)=O)ccc1OCC(O)CN1CCN(c2ccccn2)CC1 (stereo not given),inactive: 1.75%
15,Cn1c(SCC2CCCO2)nnc1-c1cccc([N+](=O)[O-])c1 (stereo not given),inactive: 7.12%
16,Cc1ccn2c(CNC(C)CCn3cccn3)c(C(=O)N3CCCCCC3)nc2c1 (stereo not given),inactive: 5.45%
17,O=c1c2c(nc3c(-c4ccccc4)c[nH]n13)CCCC2,inactive: -2.33%
18,CCc1nnc(NC(=O)COc2ccc3c(c2)OCO3)s1,inactive: 2.1%
19,Cc1cc(NC(=O)COc2ncnc3sc(C)c(C)c23)no1,inactive: 6.67%
20,O=S(=O)(Cc1cc(-c2ccccc2Cl)no1)c1ccccc1,inactive: 29%
21,NS(=O)(=O)c1ccc(NC(=O)CCCCC(=O)Nc2ccc(S(N)(=O)=O)cc2)cc1,inactive: 12%
22,COC(=O)c1cc(C#N)c(N2CCOCC2)nc1C,inactive: 3.35%
23,O=C(Nc1ccccn1)c1ccc2c(c1)OCO2,inactive: 15.7%
24,CC(C)OC(=O)c1ccc(S(N)(=O)=O)o1,inactive: 3.77%
25,CCc1cc(CNC(=O)C2CCC(=O)N(CCc3ccc(OC)cc3)C2)on1 (stereo not given),inactive: 5.42%
26,CCOc1ccccc1CN1CCNC(=O)C1CC(=O)NCc1nc(C)cs1 (stereo not given),inactive: 3.96%
27,CC(C)c1ccc(NC(=S)NC2CCCCCC2)cc1,inactive: 11.5%

row,SMILES,growth rescue (activation)
1,COc1cccc(CN2CC(C(=O)NCCCc3ccncc3)CCC2=O)c1 (stereo not given),inactive: 20.3%
2,O=C1N(c2ccc(Cl)cc2)C(c2ccccc2)N2CCCN12 (stereo not given),inactive: 12.1%
3,C=CCC(C=C)[N+]1(CC(=O)OC)CCCCC1 (stereo not given),inactive: -7.64%
4,COc1ccc(-n2c(C)cc(-c3cn4cccc(C)c4n3)c2C)cc1,inactive: -4.37%
5,CCOC(=O)C1CCN(C(=O)CNC(=O)c2nn(-c3ccc(OC)c(OC)c3)c(=O)c3ccccc23)CC1,inactive: 21.3%
6,CSCC(C)N1CCC(CO)(CCc2ccccc2)CC1 (stereo not given),inactive: -3.58%
7,O=C(NC12CC3CC(CC(C3)C1)C2)N1CCN(C(=O)c2ccco2)CC1,inactive: -2.79%
8,Cc1c(Cl)cnc(NC(=O)COC(=O)c2ccc3ncsc3c2)c1Cl,inactive: -0.649%
9,COc1ccc2c(c1)C(=O)N(Cc1ccccc1)C(=O)C2(C)C,inactive: 7.88%
10,Cc1cc(C)c2nc3nc(C)c(C)cc3c(N)c2c1,inactive: 1.92%
11,CCc1ccc(OC2(C)CCN(Cc3ccc4c(c3)OCCO4)C2)cc1 (stereo not given),inactive: -0.818%
12,O=c1[nH]c2c(oc3ccccc32)c(=O)n1Cc1ccccc1,inactive: -16.2%
13,N=c1n(CCN2CCCCC2)c2ccccc2n1CC(=O)c1cccs1,inactive: 25.1%
14,FC(F)C(F)(F)Oc1cccc(Nc2nccn3c(-c4ccc5ccccc5c4)cnc23)c1,inactive: 11.1%
15,c1ccc(Cc2nnc3n2N=C(c2ccccc2)CS3)cc1,inactive: 7.66%
16,CC(=O)c1ccc(N2CCN(C(=O)c3nn(Cc4ccccc4)c(=O)c4ccccc34)CC2)cc1,inactive: 21.1%
17,Cc1c(NC(=O)c2ccc3c(c2)C(=O)N(Cc2ccco2)C3=O)cccc1C(=O)O,inactive: -10.5%
18,Cc1cc2c(=O)n(C)c(SCC(=O)NC3CCCC3)nc2s1,inactive: 2.95%
19,O=C(O)c1cccc(S(=O)(=O)N2CCN(Cc3ccc4c(c3)OCO4)CC2)c1,inactive: -5.95%
20,COc1ccccc1C(=O)OCC(=O)NC1CCCC1,inactive: 8.87%
21,CC(=O)C1=C(O)C(=O)N(CCC(=O)O)C1c1ccccc1[N+](=O)[O-] (stereo not given),inactive: 10.7%
22,CCN1C(=O)[C@@H]2C(C(=O)c3cnccn3)=NN[C@@H]2C1=O,inactive: -22%
23,CC(C)[C@@H](C(=O)OCC(=O)c1ccc2c(c1)NC(=O)CO2)N1C(=O)c2ccccc2C1=O,inactive: 11.8%
24,COc1cc(/C=N/n2c(C)n[nH]c2=S)ccc1OCc1ccc(F)cc1,inactive: 18.4%
25,N#C/C(=C\c1cn(Cc2ccccc2)c2ccccc12)C(=O)NCc1ccco1,inactive: -1.09%
26,CCOc1ccc(N(CC(=O)Nc2c(C)cccc2C)S(=O)(=O)c2c(C)[nH]c(=O)[nH]c2=O)cc1,inactive: -45.2%
27,O=C(NCCc1cccc(Cl)c1)C1CCC(=O)N(Cc2ccc(Cl)cc2)C1 (stereo not given),inactive: 8.29%

row,SMILES,growth rescue (activation)
1,CC(C)c1ccc(OCC(=O)Nc2ccncc2)cc1,inactive: -6.8%
2,Nc1cc(-c2ccc(Br)cc2)[nH]n1,inactive: 12.3%
3,Cc1ccc(NC(=O)C(=O)C2C(=O)Nc3ccccc32)cc1 (stereo not given),inactive: -39.2%
4,CC(CNC(=O)c1cncc(O)c1)NC(=O)c1cncc(O)c1 (stereo not given),inactive: -18%
5,Cc1c(N=C2Nc3cccc4cccc2c34)c(=O)n(-c2ccccc2)n1C,inactive: 0.508%
6,CSc1ccc(CN2CCC2(C)C(=O)NC2CCN(Cc3ccccc3)CC2)cc1 (stereo not given),inactive: 11.8%
7,CC1CCN(S(=O)(=O)c2cccc(C(=O)NNC(=O)c3ccco3)c2)CC1,inactive: -5.08%
8,Cc1cc(C)n2nc(C(=O)N3CCN(Cc4ccc5c(c4)OCO5)CC3)nc2n1,inactive: 8.78%
9,O=C1CC(N2CCSCC2)C(=O)N1c1cccc(Br)c1 (stereo not given),inactive: -10.1%
10,O=C(CCCN1C(=O)/C(=C\c2ccco2)SC1=S)Nc1ccc(O)cc1C(=O)O,inactive: -3.41%
11,Cc1cc(C)cc(C(O)c2ncc(-c3ccccc3C)[nH]2)c1 (stereo not given),inactive: 21.2%
12,CN(C)C(CNC(=O)c1cc(S(=O)(=O)N(C)c2ccccc2)ccc1Cl)c1ccccc1 (stereo not given),inactive: -0.446%
13,Cc1nn(C(=O)c2ccco2)c(C)c1Br,inactive: 0.813%
14,COc1cc(/C=C2\CCCc3c2nc2ccccc2c3C(=O)O)cc(Br)c1O,inactive: -3.21%
15,Cc1cc2c(cc1S(=O)(=O)N1CCOCC1)NC(=O)CO2,inactive: 3.62%
16,CCc1c(C)nc2ncnn2c1N1CCN(S(=O)(=O)c2ccc(OC)cc2)CC1,inactive: -7.65%
17,COc1cccc(CN2CC(C(=O)N3CCN(C(C)C)CC3)CCC2=O)c1 (stereo not given),inactive: -9.22%
18,Cc1ccc(NC(=O)CCn2cnc3ccccc3c2=O)cc1,inactive: 14%
19,COc1ccc(C(=O)NNC(=O)CSc2nnc(COc3ccccc3OC)n2C)cc1,inactive: -13.4%
20,CC(=O)c1ccc(OCCCC(=O)Nc2cccc(S(=O)(=O)N3CCCCCC3)c2)cc1,inactive: 14.2%
21,O=C(Nc1ccc2c(c1)OCCO2)c1ccc(Br)cc1,inactive: 24.2%
22,OCCC1CN(Cc2nc3ccccc3[nH]2)CCN1C1CCCC1 (stereo not given),inactive: 0.904%
23,COCCOc1ccc(C(F)(F)F)cc1NC(=O)COC(=O)c1ccc(N2CCCC2=O)cc1,inactive: 19.7%
24,Cc1ccc(N(C)S(=O)(=O)c2cccc(C(=O)Oc3ccc4c(C)cc(=O)oc4c3)c2)cc1,inactive: 5.77%
25,CC(=O)c1cccc(NC(=O)CCn2c(=S)oc3ccccc32)c1,inactive: 10.6%
26,CCN(CC)S(=O)(=O)c1cc(NS(=O)(=O)c2cccc(C(=O)O)c2)ccc1C,inactive: 2.82%
27,COc1cc(C(=O)NNC(=S)NC(=O)c2ccc3c(c2)OCO3)cc(OC)c1OC,inactive: -6.23%

row,SMILES,growth rescue (activation)
1,CN(C)S(=O)(=O)c1ccc(C(=O)NCC(C)(C)CN=C2NS(=O)(=O)c3ccccc32)cc1,inactive: -9.27%
2,COc1cccc(C(c2nnnn2Cc2ccco2)N2CCN(Cc3ccccc3)CC2)c1OC (stereo not given),inactive: 4.47%
3,Cc1ccc(C(c2nnnn2C2CCCCC2)N2CCc3ccccc32)cc1 (stereo not given),inactive: -8.97%
4,CCCC(=O)Nc1ccc(Cl)c(NC(=O)c2ccc([N+](=O)[O-])cc2Cl)c1,inactive: 30.4%
5,CN(Cc1ccccc1)C(=O)c1nc2ccccn2c1CNCCn1cccn1,inactive: 2.79%
6,NC(=O)COC(=O)c1cc(-c2ccco2)nc2ccccc12,inactive: 7.1%
7,CCCOc1ccc(/C=N/Nc2ccccc2[N+](=O)[O-])c(OCCC)c1,inactive: -8.02%
8,COc1ccc(C(=O)CC(=O)C(=O)Nc2ccccc2Cl)cc1,inactive: -16.8%
9,Cc1cc(N2C(=O)C(O)=C(C(=O)c3cc4ccccc4o3)C2c2cccc(Cl)c2)no1 (stereo not given),inactive: 4.65%
10,COc1ccc(Cn2c(=O)[nH]c3cc(C(=O)N4CCN(c5ccccn5)CC4)ccc3c2=O)cc1,inactive: 4.52%
11,CCc1c(C)nc2nncn2c1NCc1ccc(Cl)cc1,inactive: 33.6%
12,CCCCC(=O)N(C)c1c(CC)nc2c(OCc3ccccc3C)cccn12,inactive: 7.96%
13,Cc1cccc(NC(=S)N2CCN(c3ccc(F)cc3)CC2)c1,inactive: 16.3%
14,CCCC(c1nnnn1Cc1ccc(OC)cc1)N1CCN(C(=O)c2ccco2)CC1 (stereo not given),inactive: -8.39%
15,COC(=O)c1ccc(CN2C(=O)c3ccccc3C2=O)o1,inactive: 17%
16,COc1ccc(/C=N/NC(=O)c2cccc(NC(=O)c3ccccc3Cl)c2)cc1,inactive: 11%
17,COc1ccc(C(=O)C2CCCN(Cc3ccc(Sc4nncn4C)o3)C2)cc1F (stereo not given),inactive: 4.06%
18,Cc1ccc(S(=O)(=O)CCc2nnc(NC(=O)c3ccco3)s2)cc1,inactive: -1.02%
19,O=C(O)COc1ccc(-c2nc(-c3ccccc3)c(-c3ccccc3)[nH]2)cc1,inactive: 11.9%
20,CCCCn1c(=O)[nH]c(=O)c2c1nc(-c1ccc(C(F)(F)F)cc1)n2C,inactive: 9.24%
21,COc1cccc(OC)c1OCCCOc1ccc([N+](=O)[O-])cc1Cl,inactive: 28.4%
22,CS(=O)(=O)N1CCN(Cc2ccc([N+](=O)[O-])cc2)CC1,inactive: -5.52%
23,Cc1ccc(Nc2nc(CSc3nnc(-c4cccnc4)n3-c3ccccc3C)cs2)cc1,inactive: 14.5%
24,CCCCN(CC)CCNC(=O)c1cc2c(=O)n(CC)c3ccccc3c2s1,inactive: 1.67%
